The campaign covered roughly 150,000 compounds. About 540 (0.36%) showed an effect of 50% or more. Some of the results follow.
System: Plasmodium falciparum
Assay: Primary screen in NF54 nanoGlo assay, in single point, at 2uM, 72h; a lower Z score goes with more inhibition
Type: functional, Erythrocyte
Settings: timepoint 72 hour

Row | Structure (SMILES) | % Inhibition [%] | Z score
1 | CO[C@H](C(=O)N1CCN(C(=O)c2ccccc2)CC1)c1ccccc1 | 0 | -0.02
2 | Cc1nnc2n1[C@](C)(C(=O)NCCc1cccnc1)COC2 | -13 | 1.52
3 | CC(C)c1csc(-c2ccc(S(=O)(=O)NCc3ccccc3)s2)n1 | -7 | 0.85
4 | COCCn1cnc2c(-c3ccccc3)cn(CC(=O)Nc3ccccc3C)c2c1=O | -4 | 0.63
5 | CN(Cc1ncnn1-c1ccc(F)cc1F)[C@H]1CCS(=O)(=O)C1 | -8 | 1.27
6 | Cc1c[nH]c(CN2CCC(Oc3ccc4ncccc4c3)(C(=O)O)CC2)n1 | -12 | 1.55
7 | CC(C)[C@H](NC(=O)Nc1ccc(C#N)nc1)C(N)=O | -25 | 3.15
8 | C#CCCCC(=O)Nc1cc(Br)c(F)cc1OC | 34 | -3.83
9 | Cc1cnn(CCC(=O)N2C(C)CN(C(=O)OC(C)(C)C)CC2C)c1 (stereo not drawn) | -7 | 0.88
10 | N#CCN(CC#N)S(=O)(=O)Cc1ccc(Cl)c(F)c1 | -8 | 0.92
11 | CCN=C(N)N(C)Cc1cccc(OC)c1 | -1 | 0.08
12 | COc1ccc(C)nc1-c1cnc2ccccc2c1 | -16 | 2.12
13 | CCN1CCN(C(=O)CCc2nnc(Cc3cccc(C)c3)o2)[C@@H](C)C1=O | -14 | 2.64
14 | COc1ccc(CCNC(=O)c2nn[nH]c2Nc2ccccc2F)cc1OC | 14 | -1.86
15 | COCCN1C(=O)C[S@+]([O-])C12CCN(C(=O)c1ccccc1)CC2 | -12 | 2.26
16 | COC(=O)C1=C(C(=O)OC)SC(=C2C(=S)C(C)(C)N(C(=O)CN3C(=O)c4ccccc4C3=O)c3cc(C)c(C)cc32)S1 | 1 | -0.11
17 | Cn1ncc2c(N3CCCC3)nc(N3CCCCC3)nc21 | 4 | -0.81
18 | O=C(Cn1ccnc1[C@@H](O)c1cccs1)Nc1cccc(S(=O)(=O)N2CCCC2)c1 | -15 | 2.79
19 | O[C@@H](CNCc1ccccc1F)COc1cccc2ccccc12 | -3 | 0.26
20 | OC1CCC(N[C@H](c2cccnc2)c2ccc(F)c(F)c2)CC1 (stereo partly drawn) | -2 | 0.29
21 | Cc1c(C(=O)N2CCCC2)sc2ncnc(NCc3ccc4c(c3)OCO4)c12 | -8 | 0.98
22 | COc1ccc(-c2cc(N(C)Cc3nnc(C4CCC4)n3C)n[nH]2)cc1 | -15 | 2.84
23 | Cc1nnc(N[C@H]2CCS(=O)(=O)C2)c(C#N)c1C | 0 | 0.02
24 | CCc1c(C)noc1NC[C@]1(c2ccc(F)cc2)CCOC1 | 3 | -0.5
25 | COc1ccc(F)c(CN2CCC[C@@]3(CCN(C(=O)c4ccco4)C3)C2=O)c1 | -13 | 1.86
26 | Cc1ccccc1NC(=O)[C@H](C)n1nc(-c2ccccc2)c2c(c1=O)CCCC2 | -3 | 0.47
27 | Cc1cccnc1CNC(=O)c1cc(NS(=O)(=O)N(C)C)cc2nc(CC(C)C)n(C)c12 | -4 | 0.53

Row | Structure (SMILES) | % Inhibition [%] | Z score
28 | Cc1cc(C)c(Br)c(C(=O)NCCc2nncn2C)c1 | -14 | 1.59
29 | c1nc(N2CCCC2)sc1CN1CCOC2(CCCC2)C1 | 0 | -0.08
30 | Cc1cc(C(F)(F)F)ccc1CN[C@@]1(CO)CCOC1 | -5 | 0.95
31 | CC(C)[C@@]1(CO)CCCN(c2ccnc(N(C)C)n2)C1 | 32 | -3.68
32 | O=C(Cn1c(=O)n(Cc2cccc(Cl)c2)c(=O)c2ccccc21)Nc1ccc(F)c(Cl)c1 | 28 | -3.22
33 | O=C(C1CCC1)N1CC[C@@]2(CCCN(Cc3cccc(F)c3F)C2=O)C1 | -11 | 1.01
34 | CC(O)CCCNC1[C@@H]2CCCN(C(=O)OC(C)(C)C)[C@@H]2C1(C)C (stereo partly drawn) | -7 | 1.4
35 | CC[C@H](NC(=O)Cc1nonc1C)c1nc(C)c(C)s1 | -8 | 0.82
36 | CC[C@@H](C(=O)N1CCC(=C2CC2)CC1)c1ccccc1 | -11 | 1.32
37 | Cc1nnc(N[C@H]2CCN(c3ncc(C(F)(F)F)cc3Cl)C2)o1 | -9 | 1.62
38 | N#CC1(NC(=O)COC(=O)c2cccc(-n3cnnn3)c2)CCCCC1 | 4 | -0.72
39 | O=C(Nc1ncc(Cc2ccccc2)s1)N1CCC[C@H](OCCO)C1 | 4 | -0.79
40 | Cn1nccc1C(=O)N1CCC[C@H]1c1cccs1 | 2 | -0.35
41 | O=C(NCc1ccc(-c2nc(C3CC3)no2)s1)c1cccc(F)c1 | -7 | 1.25
42 | COc1ccc(C(=O)C[n+]2cnn(CC(=O)c3ccc(C)cc3)c2)cc1 | -14 | 1.25
43 | Cc1nccnc1CN1C[C@H](C)[C@@](O)(C(C)C)C1 | -4 | 0.6
44 | CC1CCCC(OCc2nnc(-c3ccccc3)o2)C1 (stereo not drawn) | -3 | 0.39
45 | O=C(NCc1nnc2ccccn12)c1ccc2c(c1)CCCC2 | -12 | 2.25
46 | N[C@@H]1CCCN(C(=O)C2CCn3c(cnc3C3CCCCC3)C2)C1 (stereo partly drawn) | -13 | 1.39
47 | COc1ccccc1CNC(=O)CN1C(=O)[C@@H]2CCCCN2C(=O)c2ccccc21 | -7 | 1.09
48 | C[C@@]1(C2CC2)COCCN1C(=O)c1cnc(-c2cccnc2)s1 | -10 | 1.67
49 | CN(Cc1ccc2c(c1)OCO2)[C@@H](C(=O)O)c1ccsc1 | -1 | 0.15
50 | O=C(CN1CCN(S(=O)(=O)c2ccccc2F)CC1)NCC1(N2CCOCC2)CCCCC1 | -30 | 3.5
51 | Cc1cnn([C@H]2CCCN(Cc3cccc4c3OCO4)C2)c1 | -18 | 2.33
52 | CCc1ccc([C@@H]2CCCN2C(=O)NCc2cncn2C)o1 | -8 | 1
53 | COC(=O)c1cc(Cl)cc(NC(=O)CC2CCNCC2)c1 | 30 | -4.1
54 | Cc1cc(C(=O)N[C@@H](C)C2CC2)sc1C | -2 | 0.42

— ChEMBL document CHEMBL4888484, “Replenishing the malaria drug discovery pipeline: Screening and hit evaluation of the MMV Hit Generation Library 1 (HGL1) against asexual blood stage Plasmodium falciparum ,using a nano luciferase reporter read-out” (2022)
